Some of the results follow. The list includes weakly bound sequences.
These sequences were tested against T1, MBP-FoxP3dN (UniProt Q99JB6) (assay: PD-seq (MBP pull-down with sequencing)). Details: 20 mM Tris-HCl pH 7.5, 100 mM NaCl, 1.5 mM MgCl2, 0.4 uM protein, 0.1 uM dsDNA library, 30 min, room temperature, amylose pull-down; high values mean tight binding; double strand, one strand shown.
T1 sequence: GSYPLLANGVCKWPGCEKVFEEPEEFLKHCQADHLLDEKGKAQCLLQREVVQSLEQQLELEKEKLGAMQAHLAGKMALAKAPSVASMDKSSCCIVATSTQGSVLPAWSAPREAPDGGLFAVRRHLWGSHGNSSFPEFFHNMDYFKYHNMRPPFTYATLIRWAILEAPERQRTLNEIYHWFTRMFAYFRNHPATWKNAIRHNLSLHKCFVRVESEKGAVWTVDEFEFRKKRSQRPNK

Row | Sequence | binding signal (RPM ratio (pull-down/input))
1 | GATGATTGTTCTCCCAGCTGATGAATTTTTCTGGTCGAGTAAACAAATTTTCCTAATCTTTCTGTTCAAGCGCCATCTAC | 0.207
2 | GATGATTGTTCTCCCAGCTGATGAATTCCCCTACTCGAGTAAACAAATTTTCCTAATCTTTCTGTTCAAGCGCCATCTAC | 0.276
3 | GATGATTGTTCTCCCAGCTGATGAATTTCCGTAGTCGAGTAAACAAATTTTCCTAATCTTTCTGTTCAAGCGCCATCTAC | 0.299
4 | GATGATTGTTCTCCCAGCTGATGAATTTGTGTTTTCGAGTAAACAAATTTTCCTAATCTTTCTGTTCAAGCGCCATCTAC | 5.24
5 | GATGATTGTTCTCCCAGCTGATGAATTATGTGACTCGAGTAAACAAATTTTCCTAATCTTTCTGTTCAAGCGCCATCTAC | 1.8
6 | GATGATTGTTCTCCCAGCTGATGAATTTATAAGGTCGAGTAAACAAATTTTCCTAATCTTTCTGTTCAAGCGCCATCTAC | 0.412
7 | GATGATTGTTCTCCCAGCTGATGAATTACTCTACTCGAGTAAACAAATTTTCCTAATCTTTCTGTTCAAGCGCCATCTAC | 0.302
8 | GATGATTGTTCTCCCAGCTGATGAATTCCGGCATTCGAGTAAACAAATTTTCCTAATCTTTCTGTTCAAGCGCCATCTAC | 4.43
9 | GATGATTGTTCTCCCAGCTGATGAATTACAAGAATCGAGTAAACAAATTTTCCTAATCTTTCTGTTCAAGCGCCATCTAC | 0.298
10 | GATGATTGTTCTCCCAGCTGATGAATTAACTCCCTCGAGTAAACAAATTTTCCTAATCTTTCTGTTCAAGCGCCATCTAC | 0.259
11 | GATGATTGTTCTCCCAGCTGATGAATTCTTAAGATCGAGTAAACAAATTTTCCTAATCTTTCTGTTCAAGCGCCATCTAC | 0.196
12 | GATGATTGTTCTCCCAGCTGATGAATTTATTCGCTCGAGTAAACAAATTTTCCTAATCTTTCTGTTCAAGCGCCATCTAC | 0.584
13 | GATGATTGTTCTCCCAGCTGATGAATTCGCTTGTTCGAGTAAACAAATTTTCCTAATCTTTCTGTTCAAGCGCCATCTAC | 3.3
14 | GATGATTGTTCTCCCAGCTGATGAATTTAGGAGCTCGAGTAAACAAATTTTCCTAATCTTTCTGTTCAAGCGCCATCTAC | 0.302
15 | GATGATTGTTCTCCCAGCTGATGAATTACCAGAATCGAGTAAACAAATTTTCCTAATCTTTCTGTTCAAGCGCCATCTAC | 0.217
16 | GATGATTGTTCTCCCAGCTGATGAATTACTCAGATCGAGTAAACAAATTTTCCTAATCTTTCTGTTCAAGCGCCATCTAC | 0.213

Row | Sequence | binding signal (RPM ratio (pull-down/input))
17 | GATGATTGTTCTCCCAGCTGATGAATTCTCCGTTTCGAGTAAACAAATTTTCCTAATCTTTCTGTTCAAGCGCCATCTAC | 0.24
18 | GATGATTGTTCTCCCAGCTGATGAATTAGGTGCATCGAGTAAACAAATTTTCCTAATCTTTCTGTTCAAGCGCCATCTAC | 1.66
19 | GATGATTGTTCTCCCAGCTGATGAATTCACGCGATCGAGTAAACAAATTTTCCTAATCTTTCTGTTCAAGCGCCATCTAC | 0.823
20 | GATGATTGTTCTCCCAGCTGATGAATTTGAAGTATCGAGTAAACAAATTTTCCTAATCTTTCTGTTCAAGCGCCATCTAC | 0.616
21 | GATGATTGTTCTCCCAGCTGATGAATTGTAGCTCTCGAGTAAACAAATTTTCCTAATCTTTCTGTTCAAGCGCCATCTAC | 0.791
22 | GATGATTGTTCTCCCAGCTGATGAATTCAAGTTGTCGAGTAAACAAATTTTCCTAATCTTTCTGTTCAAGCGCCATCTAC | 0.668
23 | GATGATTGTTCTCCCAGCTGATGAATTGATTGCGTCGAGTAAACAAATTTTCCTAATCTTTCTGTTCAAGCGCCATCTAC | 1.43
24 | GATGATTGTTCTCCCAGCTGATGAATTAGCTATTTCGAGTAAACAAATTTTCCTAATCTTTCTGTTCAAGCGCCATCTAC | 1.98
25 | GATGATTGTTCTCCCAGCTGATGAATTGAGGGTTTCGAGTAAACAAATTTTCCTAATCTTTCTGTTCAAGCGCCATCTAC | 0.656
26 | GATGATTGTTCTCCCAGCTGATGAATTGAATAAATCGAGTAAACAAATTTTCCTAATCTTTCTGTTCAAGCGCCATCTAC | 0.242
27 | GATGATTGTTCTCCCAGCTGATGAATTAACCATTTCGAGTAAACAAATTTTCCTAATCTTTCTGTTCAAGCGCCATCTAC | 0.352
28 | GATGATTGTTCTCCCAGCTGATGAATTAAATGCGTCGAGTAAACAAATTTTCCTAATCTTTCTGTTCAAGCGCCATCTAC | 1.47
29 | GATGATTGTTCTCCCAGCTGATGAATTGCTGGAGTCGAGTAAACAAATTTTCCTAATCTTTCTGTTCAAGCGCCATCTAC | 0.345
30 | GATGATTGTTCTCCCAGCTGATGAATTAACATTTTCGAGTAAACAAATTTTCCTAATCTTTCTGTTCAAGCGCCATCTAC | 0.441
31 | GATGATTGTTCTCCCAGCTGATGAATTACGGATGTCGAGTAAACAAATTTTCCTAATCTTTCTGTTCAAGCGCCATCTAC | 0.504
